The list shows a part of the results. Many values rest on one well or one pass, so single values are uncertain.
Key:
Experiment in all cases: cell count relative to DMSO control; melanoma cells; higher = more viable cells
Settings in all cases: library dose: standard library concentration; 72 h
[1] = system: A101D
[2] = system: A2058
[3] = system: A375
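Also: cells treated in 1,536-well plates, then fixed and DAPI-stained, with nuclei counted from automated high-throughput microscope images.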

SMILES	cell count [1]	cell count [2]	cell count [3]
NC1(c2ccc(-c3nc4ccn5c(=O)[nH]nc5c4cc3-c3ccccc3)cc2)CCC1 + CN(C)S(=O)(=O)c1ccc2c(c1)/C(=C/c1cc3c([nH]1)CCCC3)C(=O)N2 [SU6656] (first compound 2 µM, partner dose 2 µM)	65.3%	67%	133%
CS(=O)(=O)c1ccc(C(=O)Nc2ccc(Cl)c(-c3ccccn3)c2)c(Cl)c1 [vismodegib] + Cc1cc(Nc2cc(N3CCN(C)CC3)nc(/C=C/c3ccccc3)n2)n[nH]1 [ENMD2076] (first compound 5 µM, partner dose 0.2 µM)	83.2%	90.3%	105%
CS(=O)(=O)c1ccc(C(=O)Nc2ccc(Cl)c(-c3ccccn3)c2)c(Cl)c1 [vismodegib] + OCc1c[nH]c2ccccc12 [Indole-3-carbinol] (first compound 5 µM, partner dose 4 µM)	115%	86.3%	101%
C=C(c1ccc(C(=O)O)cc1)c1cc2c(cc1C)C(C)(C)CCC2(C)C [Bexarotene] + COc1cc2c(Oc3ccc4[nH]c(C)cc4c3F)ncnc2cc1OCCCN1CCCC1 [cediranib] (first compound 10 µM, partner dose 2 µM)	117%	80%	119%
CCCS(=O)(=O)Nc1ccc(F)c(C(=O)c2c[nH]c3ncc(Cl)cc23)c1F + Cn1cncc1[C@@](N)(c1ccc(Cl)cc1)c1ccc2c(c1)c(-c1cccc(Cl)c1)cc(=O)n2C [tipifarnib] (first compound 0.4 µM, partner dose 0.05 µM)	62.1%	70.9%	109%
CN(c1ncccc1CNc1nc(Nc2ccc3c(c2)CC(=O)N3)ncc1C(F)(F)F)S(C)(=O)=O + OCc1c[nH]c2ccccc12 [Indole-3-carbinol] (first compound 0.4 µM, partner dose 4 µM)	85.8%	87.9%	53.1%
CN(c1ncccc1CNc1nc(Nc2ccc3c(c2)CC(=O)N3)ncc1C(F)(F)F)S(C)(=O)=O + O=C(O)c1ccc2c(c1)nc(Nc1cccc(Cl)c1)c1ccncc12 [CX4945] (first compound 0.4 µM, partner dose 2 µM)	74.8%	62%	49.2%
NC1(c2ccc(-c3nc4ccn5c(=O)[nH]nc5c4cc3-c3ccccc3)cc2)CCC1 + CO[C@H]1C[C@@H]2CC[C@@H](C)[C@@](O)(O2)C(=O)C(=O)N2CCCC[C@H]2C(=O)O[C@H]([C@H](C)C[C@@H]2CC[C@@H](OCCO)[C@H](OC)C2)CC(=O)[C@H](C)/C=C(\C)[C@@H](O)[C@@H](OC)C(=O)[C@H](C)C[C@H](C)/C=C/C=C/C=C/1C [everolimus] (first compound 2 µM, partner dose 0.1 µM)	62.3%	43.3%	96.5%
NC1(c2ccc(-c3nc4ccn5c(=O)[nH]nc5c4cc3-c3ccccc3)cc2)CCC1 + O=C(CCCCCCC(=O)Nc1ccccc1)NO [vorinostat] (first compound 2 µM, partner dose 0.4 µM)	70.8%	78.8%	95.2%
CN(c1ncccc1CNc1nc(Nc2ccc3c(c2)CC(=O)N3)ncc1C(F)(F)F)S(C)(=O)=O + CN1CCN(c2ccc3nc(-c4c(N)c5c(F)cccc5[nH]c4=O)[nH]c3c2)CC1 [Dovitinib] (first compound 0.4 µM, partner dose 0.5 µM)	49.9%	21%	54.4%
CCCS(=O)(=O)Nc1ccc(F)c(C(=O)c2c[nH]c3ncc(Cl)cc23)c1F + Cc1ccc(NC(=O)c2cccc(N(C)C)c2)cc1NC(=O)c1ccc(O)cc1 [ZM336372] (first compound 0.4 µM, partner dose 10 µM)	91.3%	124%	103%
NC1(c2ccc(-c3nc4ccn5c(=O)[nH]nc5c4cc3-c3ccccc3)cc2)CCC1 + Nc1ccn([C@@H]2O[C@H](CO)[C@@H](O)C2(F)F)c(=O)n1 [gemcitabine] (first compound 2 µM, partner dose 0.002 µM)	69.9%	44.2%	83.3%
CN(c1ncccc1CNc1nc(Nc2ccc3c(c2)CC(=O)N3)ncc1C(F)(F)F)S(C)(=O)=O + NC(=O)Nc1cc(-c2cccc(F)c2)sc1C(=O)N[C@H]1CCCNC1 [AZD7762] (first compound 0.4 µM, partner dose 0.1 µM)	76%	96.8%	72.1%
C=C(c1ccc(C(=O)O)cc1)c1cc2c(cc1C)C(C)(C)CCC2(C)C [Bexarotene] + CCCS(=O)(=O)Nc1ccc(F)c(C(=O)c2c[nH]c3ncc(Cl)cc23)c1F [PLX4720] (first compound 10 µM, partner dose 0.4 µM)	68.7%	92.7%	83.4%
CS(=O)(=O)c1ccc(C(=O)Nc2ccc(Cl)c(-c3ccccn3)c2)c(Cl)c1 [vismodegib] + OCCn1cc(-c2cnc3nnn(Cc4ccc5ncccc5c4)c3n2)cn1 [PF04217903] (first compound 5 µM, partner dose 5 µM)	101%	85.6%	91.6%
CS(=O)(=O)c1ccc(C(=O)Nc2ccc(Cl)c(-c3ccccn3)c2)c(Cl)c1 [vismodegib] + NCC(=O)Nc1ccc(-n2nc(C(F)(F)F)cc2-c2ccc3c(ccc4ccccc43)c2)cc1 [OSU03012] (first compound 5 µM, partner dose 5 µM)	69.2%	110%	68.9%
C=C(c1ccc(C(=O)O)cc1)c1cc2c(cc1C)C(C)(C)CCC2(C)C [Bexarotene] + Cc1ccc(NC(=O)c2cccc(N(C)C)c2)cc1NC(=O)c1ccc(O)cc1 [ZM336372] (first compound 10 µM, partner dose 10 µM)	93.3%	101%	84.1%
C=C(c1ccc(C(=O)O)cc1)c1cc2c(cc1C)C(C)(C)CCC2(C)C [Bexarotene] + C#Cc1cccc(Nc2ncnc3cc(OCCOC)c(OCCOC)cc23)c1 [erlotinib] (first compound 10 µM, partner dose 4 µM)	88.4%	86.5%	122%
NC1(c2ccc(-c3nc4ccn5c(=O)[nH]nc5c4cc3-c3ccccc3)cc2)CCC1 + CCCS(=O)(=O)Nc1ccc(F)c(C(=O)c2c[nH]c3ncc(Cl)cc23)c1F [PLX4720] (first compound 2 µM, partner dose 0.4 µM)	60.7%	64.9%	76.5%
CS(=O)(=O)c1ccc(C(=O)Nc2ccc(Cl)c(-c3ccccn3)c2)c(Cl)c1 [vismodegib] + C=C(c1ccc(C(=O)O)cc1)c1cc2c(cc1C)C(C)(C)CCC2(C)C [Bexarotene] (first compound 5 µM, partner dose 10 µM)	113%	81.3%	111%
C=C(c1ccc(C(=O)O)cc1)c1cc2c(cc1C)C(C)(C)CCC2(C)C [Bexarotene] + Cc1nc(Nc2ncc(C(=O)Nc3c(C)cccc3Cl)s2)cc(N2CCN(CCO)CC2)n1 [dasatanib] (first compound 10 µM, partner dose 0.02 µM)	88.7%	60.8%	73.3%
NC1(c2ccc(-c3nc4ccn5c(=O)[nH]nc5c4cc3-c3ccccc3)cc2)CCC1 + Cc1nc(Nc2ncc(C(=O)Nc3c(C)cccc3Cl)s2)cc(N2CCN(CCO)CC2)n1 [dasatanib] (first compound 2 µM, partner dose 0.02 µM)	71.9%	46.3%	67.7%
NC1(c2ccc(-c3nc4ccn5c(=O)[nH]nc5c4cc3-c3ccccc3)cc2)CCC1 + OCc1c[nH]c2ccccc12 [Indole-3-carbinol] (first compound 2 µM, partner dose 4 µM)	85%	69.4%	112%
NC1(c2ccc(-c3nc4ccn5c(=O)[nH]nc5c4cc3-c3ccccc3)cc2)CCC1 + Clc1ccc(Nc2nnc(Cc3ccncc3)c3ccccc23)cc1 [vatalanib] (first compound 2 µM, partner dose 10 µM)	75.5%	57.7%	98.6%
